# Data published in publication PMC4336329 (PLoS ONE, 2015).
# About 14,000 (4.5%) of roughly 310,000 compounds showed an effect of 50% or more. Effects have a minus sign here. The list shows a part of the results.
# Biological target: human ether-à-go-go-related gene (hERG) potassium channel (human, UniProt Q12809)
# Test: primary screen, population patch clamp on CHO cells stably expressing hERG
# 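Also: peak tail current of the secondary pulse compared with the same well before compound.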
# Chain of human ether-à-go-go-related gene (hERG) potassium channel (Q12809 whole entry, looked up): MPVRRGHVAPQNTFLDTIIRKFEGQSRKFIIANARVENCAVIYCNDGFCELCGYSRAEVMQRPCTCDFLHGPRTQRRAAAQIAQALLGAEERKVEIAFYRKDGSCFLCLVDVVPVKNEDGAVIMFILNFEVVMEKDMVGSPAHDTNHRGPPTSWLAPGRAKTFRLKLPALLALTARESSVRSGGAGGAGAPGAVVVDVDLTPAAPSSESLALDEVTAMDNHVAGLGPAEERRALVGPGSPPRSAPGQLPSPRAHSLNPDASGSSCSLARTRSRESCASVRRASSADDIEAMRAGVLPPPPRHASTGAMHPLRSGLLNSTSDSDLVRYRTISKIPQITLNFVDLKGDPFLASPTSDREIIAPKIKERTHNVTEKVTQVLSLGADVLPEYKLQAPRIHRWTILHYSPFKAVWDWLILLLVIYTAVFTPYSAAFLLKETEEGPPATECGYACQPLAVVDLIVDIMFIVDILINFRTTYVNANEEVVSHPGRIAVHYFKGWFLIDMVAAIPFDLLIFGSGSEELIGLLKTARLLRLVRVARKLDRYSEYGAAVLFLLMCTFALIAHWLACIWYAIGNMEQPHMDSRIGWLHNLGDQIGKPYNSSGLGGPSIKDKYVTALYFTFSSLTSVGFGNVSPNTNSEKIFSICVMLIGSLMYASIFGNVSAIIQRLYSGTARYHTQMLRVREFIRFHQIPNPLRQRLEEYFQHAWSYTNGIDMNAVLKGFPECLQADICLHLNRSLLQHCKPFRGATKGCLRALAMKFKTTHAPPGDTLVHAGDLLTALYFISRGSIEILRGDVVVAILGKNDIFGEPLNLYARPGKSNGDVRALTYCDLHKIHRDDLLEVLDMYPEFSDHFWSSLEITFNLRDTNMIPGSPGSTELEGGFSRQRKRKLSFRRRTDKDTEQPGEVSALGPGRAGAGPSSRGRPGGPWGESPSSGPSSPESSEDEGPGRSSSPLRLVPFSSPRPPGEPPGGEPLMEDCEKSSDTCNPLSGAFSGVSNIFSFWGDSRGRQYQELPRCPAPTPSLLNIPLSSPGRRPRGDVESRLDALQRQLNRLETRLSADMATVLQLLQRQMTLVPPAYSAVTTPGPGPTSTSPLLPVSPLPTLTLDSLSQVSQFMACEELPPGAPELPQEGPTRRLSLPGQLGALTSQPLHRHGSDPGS
row,SMILES,"hERG current change (%, negative = inhibition) at 10uM [%]"
1,COc1ccc(CN(C)c2ncnc(N)n2)cc1,11.5
2,O=C(CCCc1nc(-c2ccccc2)no1)NC1CCCC1,-12.2
3,Cc1n(C)c2cc(Cl)ccc2[n+]1Cc1ccccc1.[I-],-3.49
4,COC(=O)[C@H](CC(C)C)NC(=O)Nc1ccc(F)cc1,5.58
5,COc1ccc(C2CC(c3ccc4ccccc4c3)=NN2C(=O)CNC2CCCCC2)cc1 (centres unmarked),-21.2
6,COc1ccc(NC(=O)n2ncc3c(C)cccc32)cc1,20.5
7,COc1cc(NC(=S)N2CCN(C(=O)c3ccco3)CC2)c(OC)cc1Cl,-25.8
8,O=C(COc1ccccc1Cl)Nc1cccc(S(=O)(=O)NC2=NCCCCC2)c1,-5.14
9,CC(NC(=O)C1CCC1)c1ccc(Br)cc1 (centres unmarked),-17.5
10,O=C(Nc1nc2ccccc2[nH]1)c1ccc(Cl)cc1,20.8
11,O=C(COC(=O)/C=C/c1ccc(S(=O)(=O)N2CCOCC2)cc1)NCc1ccc(Cl)cc1,1.35
12,O=C(NCc1ccncc1)C(=O)NC1CC1,18.9
13,Cc1cc(Br)ccc1NC(=O)CNC(=O)COc1ccccc1C,7.86
14,Cc1ccc(C)c(NS(=O)(=O)c2ccc3c(c2)NC(=O)CO3)c1,-5.83
15,Cc1ccc(C2C(C#N)=C(N)Oc3n[nH]c(-c4ccccc4)c32)o1 (centres unmarked),5.94
16,Cc1noc(C)c1C(=O)OCC(=O)C12CC3CC(CC(C3)C1)C2,1.18
17,CCOC(=O)c1cncn1[C@H](C)c1ccccc1,6.17
18,O=C(Nc1ccccc1)c1cccc(S(=O)(=O)Oc2ccc([N+](=O)[O-])cc2)c1,-56.4
19,CCOC(=O)[C@H]1[C@H]2COc3ccc(C)cc3[C@@H]2N2C(=O)CN(Cc3ccco3)C(=O)[C@@]12C,-0.0676
20,COC(=O)C1=C(C)N(c2ccc(C)cc2)/C(=C/c2ccc(O)cc2)C1=O,32.2
21,Cc1ccc(C)c(S(=O)(=O)Nc2ccc(O)c3ccccc23)c1,-18.1
22,CN(C)c1ccc(NC(=S)NCC2CCCO2)cc1 (centres unmarked),3.56
23,O=C(O)C(=O)O.O=C(c1ccccc1)c1ccc(OCCCN2CCCC2)cc1,-70.6

row,SMILES,"hERG current change (%, negative = inhibition) at 10uM [%]"
1,C[C@@H]1C[C@@H]2OC(=O)[C@]3(C)[C@H]2[C@@H](OC3(C)O)[C@]2(C)C(=O)CC[C@H]12 (some centres unmarked),4.01
2,Cc1c(Cl)cccc1NS(=O)(=O)c1ccc(-c2ccc(=O)[nH]n2)o1,12.7
3,CCOC(=O)Nc1ccc(S(=O)(=O)Nc2nc(C)cc(C)n2)cc1,-17.7
4,S=c1[nH]nc(-c2ccccc2)o1,15.1
5,CC(Sc1nc(NCc2ccccc2)nc(N2CCOCC2)n1)C(=O)Nc1ccccc1 (centres unmarked),8.24
6,N#C/C(=C/c1ccc(OCc2ccccc2)cc1)C(=O)NC1CCCCC1,7.76
7,Cc1cnc(C(=O)OCC(=O)c2ccc(F)c(F)c2)cn1,0.157
8,CC(=O)Nc1ccc(S(=O)(=O)N2CCCC(C(=O)O)C2)cc1 (centres unmarked),-3.16
9,COc1cc(/C=N/NC(=O)CCC(=O)NCc2ccccc2)cc(OC)c1OC,8.99
10,O=C1CC2(CC(c3ccc(Cl)cc3)=NO2)C(=O)N1c1ccccc1 (centres unmarked),-2.86
11,CC(=O)c1cc2c(cc1N/C(=N/S(=O)(=O)c1ccc(C)cc1)c1ccc(Cl)cc1)OCO2,7.23
12,O=C(COC(=O)Cc1ccc(Cl)c(Cl)c1)Nc1ccc2[nH]c(=O)[nH]c2c1,16.5
13,CCOc1cc(CNCCCN2CCOCC2)ccc1OCC(=O)NC(C)(C)C.Cl,-2.55
14,Cc1ccc(CNC(=O)c2nnn(-c3cccc(C)c3)c2N)cc1,-22.6
15,CCOc1ccc(N(CC(=O)O)S(=O)(=O)c2ccc(OC)c(OC)c2)cc1,13.7
16,COc1ccccc1N1CCN(CC(O)COc2ccc(S(=O)(=O)N3CCOCC3)cc2)CC1.Cl (centres unmarked),-4.3
17,CCOC(=O)c1cc(S(=O)(=O)N2CCN(C(=O)OCC)CC2)cn1C,-3.2
18,COC(=O)CCCCCNc1ccc(C(=O)OC)cc1N,11
19,Cc1ccc(S(=O)(=O)N2CCN(C(=O)C(C)Cn3cncn3)CC2)cc1C (centres unmarked),8.65
20,CCC(C)(C(=O)NC1CCCC1)N(C(=O)CNC(C)=O)c1ccccc1 (centres unmarked),0.426
21,CCc1cccc2c3c([nH]c12)C(CC)(CC(=O)O)OCC3 (centres unmarked),16.1
22,O=C(Nc1ccc(S(=O)(=O)Nc2ccccc2)cc1)C1CC1,-3.52
23,CCCNC(=O)c1ccc(N2CC3CC(C2)c2cccc(=O)n2C3)c(NC(=O)Nc2ccc(CC)cc2)c1 (centres unmarked),-78.7

row,SMILES,"hERG current change (%, negative = inhibition) at 10uM [%]"
1,COc1cc(OC)cc(C(=O)NN2CCCCC2)c1,-4.37
2,O=S(=O)(Nc1ccc2c(c1)OCCO2)c1ccc(F)cc1,-3.41
3,Cc1oc(/C=N/NS(=O)(=O)c2ccccc2)cc1Br,-7.5
4,O=C(c1ccccc1)N1CCN(C(=O)c2ccc(OC(F)(F)F)cc2)CC1,-62.8
5,O=C(CNS(=O)(=O)c1ccc2ccccc2c1)OCC(=O)c1ccc(Br)s1,17.2
6,Oc1ccc(Cl)cc1/C=N/c1nccs1,7.9
7,COc1ccc(C(=O)Nc2ccccc2C(=O)N/N=C/c2ccncc2)cc1OC,0.749
8,CCOC(=O)c1oc2cc(O)c(CC)cc2c(=O)c1-c1cscn1,2.56
9,Cc1ccc(C(=O)N/N=C\c2ccc(-c3ccc(Cl)cc3)o2)cn1,-47.6
10,COc1ccccc1CC(=O)Nc1ccc(S(=O)(=O)N2CCOCC2)cc1,7.44
11,Cc1c(OCc2ccccc2)c(=O)ccn1Cc1ccc(F)cc1,4.21
12,CCOc1ccccc1NC(=O)C1CCCN(S(=O)(=O)c2ccc3c(c2)C(C)(C)C(=O)N3C)C1 (centres unmarked),-11.9
13,COc1ccc(CNC(=O)[C@@H](NC(=O)C2CCN(C(=O)[C@@H](N)CCSC)CC2)C(C)C)cc1,14.7
14,C=CCOC(=O)C1=C[C@H](c2ccc3c(c2)OCO3)C[C@H](OCCCCO)O1,-30.2
15,Cc1cccc(NC(=O)c2sc3nc4c(c(-c5cccs5)c3c2N)CN(C)CC4)c1,-51.6
16,COC(=O)c1c(NC(=O)c2cccs2)sc2c1CCCC2,11.8
17,Cc1ccc(CN2CCN(Cc3cnc(C)s3)CC2CCO)cc1 (centres unmarked),-19.4
18,Nc1nc(SCC(=O)NCC2CCCO2)[nH]c(=O)c1NC(=O)c1ccco1 (centres unmarked),15.2
19,CC(=O)c1c(C(C)=O)c(C)n(-c2ccc(C)c(NC(=O)c3ccccc3Cl)c2)c1C,-26.2
20,Cc1nn(-c2ccccc2)c2c1C1(C(=O)N3c4c(cccc41)C(C)CC3(C)C)C(C#N)=C(N)O2 (centres unmarked),-6.75
21,O=[N+]([O-])c1ccccc1CNCCO,11.2
22,O=C(O)C1CC=CCC1C(=O)Nc1cccc(Cl)c1 (centres unmarked),9.77
23,C=CCc1ccccc1OCC(O)CN1CCN(c2ccc(OC)cc2)CC1.Cl (centres unmarked),-66.5

row,SMILES,"hERG current change (%, negative = inhibition) at 10uM [%]"
1,O=C(Cc1ccccc1)N/N=C/c1cc2c(cc1Cl)OCO2,1.85
2,CC(C(=O)Nc1cc(C(F)(F)F)ccc1N1CCOCC1)N1C(=O)C2CCCCC2C1=O (centres unmarked),-10.9
3,O=C(NNc1ccc([N+](=O)[O-])cc1)c1ccco1,-4.27
4,Cc1ccc(SCC(=O)Nc2ccc(S(=O)(=O)Nc3nccs3)cc2)cc1,4.08
5,O=C(Nc1ccc2ccccc2c1)c1ccc2[nH]c(=O)c(=O)[nH]c2c1,21.3
6,Clc1ccccc1Oc1cnc2ccccc2n1,-21.4
7,Cc1cc(C)nc(NC(=S)NC(=O)c2ccccc2)n1,19.3
8,CCc1noc(C)c1C(=O)Nc1nnc(CC(C)C)s1,-2.27
9,COc1ccc(-c2oc3ccccc3c2C#CC(C)(C)O)cc1,11.7
10,CCN1C(=S)SC(=O)C1=C1C=C(C)N(CCO)C(C)=C1,-3.65
11,COc1ccccc1C(=O)NCCC(=O)N1CCN(c2ccccc2O)CC1,14.1
12,Cc1nc(C)c(-c2csc(Nc3ncccc3C)n2)s1,15.7
13,O=C1CSC(c2cccc([N+](=O)[O-])c2)N1c1ccccc1 (centres unmarked),3.55
14,CCCN(Cc1cc2cccc(C)c2[nH]c1=O)S(C)(=O)=O,-11
15,Cc1[nH]c2ccccc2c1C(=O)C(=O)N1CCC2(CC1)OCCO2,7.95
16,CC(=O)Nc1cccc(C(=O)N/N=C/c2ccccc2F)c1,7.22
17,CC(=O)CSc1nc(C(F)(F)F)cc(=O)n1-c1ccccc1,4.91
18,COc1ccc(-c2cc(C3CCNCC3)[nH]n2)cc1,18.7
19,COc1ccc(NC(=O)CN(C)C(=O)c2ccccc2Sc2ncnc3sc(C)c(C)c23)cc1,-7.35
20,Cc1cccc(OCC(=O)NCC(=O)N=Nc2c(O)[nH]c3ccc([N+](=O)[O-])cc23)c1,4.94
